A compilation of properties of binary mixtures (doi:10.1016/j.cjche.2019.04.016)
The densities may have been worked out from excess volumes.

Assay: xn = mol fraction of the nth substance listed
Settings: 100 kPa

CCCC[n+]1ccn(C)c1.[Cl-] + CCCC[n+]1ccn(C)c1.F[B-](F)(F)F
mass density [kg/m3]
Settings | x2 = 0 | x2 = 0.1989 | x2 = 0.3321 | x2 = 0.5003 | x2 = 0.667 | x2 = 0.8003
303.15 K | – | 1105.8 | – | 1141.7 | 1160.7 | 1175.7
308.15 K | 1077.4 | 1102.8 | 1119.1 | – | 1157.4 | 1172.3
313.15 K | 1074.6 | 1099.9 | – | – | 1154.1 | 1168.8
318.15 K | 1071.8 | 1096.9 | 1112.9 | 1132.1 | 1150.7 | –
323.15 K | – | 1093.9 | – | 1128.9 | 1147.4 | –

CCCC[n+]1ccn(C)c1.F[B-](F)(F)F + CCCC[n+]1ccn(C)c1.[Cl-]
x1 = 1
Settings | mass density [kg/m3]
303.15 K | 1196.1
308.15 K | 1192.6
313.15 K | 1189
323.15 K | 1182
